From PubChem BioAssay AID720709 (National Center for Advancing Translational Sciences (NCATS), 2013)
Screen size: about 360,000 compounds; about 520 (0.14%) were called active. Inconclusive means that the source gave no clear call. Such entries were picked first, then a sample of the others. Calls come from the whole dose curve; as a rule, active = well fitted inhibition curve with a large enough effect; inconclusive = small, poorly fitted or top-dose-only effect; inactive = no such curve, though single readings can be large or run the other way. Potencies beside an inconclusive call are fits to weak or partial responses and may not hold up.

Biological target: Rap guanine nucleotide exchange factor 3 (Homo sapiens) (UniProt O95398)
Assay: qHTS for Antagonist of cAMP-regulated guanine nucleotide exchange factor 3 (EPAC1): primary screen; note: nearly all actives have a fitted effect of over 50% in size
Conditions: EPAC1 GEF assay, Rap1b-BODIPY-GDP exchange fluorescence; series mostly up to 115 µM
Potency is the fitted concentration of half-maximal effect; tags give direction and shape of the fitted curve.

Sequence of UniProt O95398 (O95398 whole entry, looked up): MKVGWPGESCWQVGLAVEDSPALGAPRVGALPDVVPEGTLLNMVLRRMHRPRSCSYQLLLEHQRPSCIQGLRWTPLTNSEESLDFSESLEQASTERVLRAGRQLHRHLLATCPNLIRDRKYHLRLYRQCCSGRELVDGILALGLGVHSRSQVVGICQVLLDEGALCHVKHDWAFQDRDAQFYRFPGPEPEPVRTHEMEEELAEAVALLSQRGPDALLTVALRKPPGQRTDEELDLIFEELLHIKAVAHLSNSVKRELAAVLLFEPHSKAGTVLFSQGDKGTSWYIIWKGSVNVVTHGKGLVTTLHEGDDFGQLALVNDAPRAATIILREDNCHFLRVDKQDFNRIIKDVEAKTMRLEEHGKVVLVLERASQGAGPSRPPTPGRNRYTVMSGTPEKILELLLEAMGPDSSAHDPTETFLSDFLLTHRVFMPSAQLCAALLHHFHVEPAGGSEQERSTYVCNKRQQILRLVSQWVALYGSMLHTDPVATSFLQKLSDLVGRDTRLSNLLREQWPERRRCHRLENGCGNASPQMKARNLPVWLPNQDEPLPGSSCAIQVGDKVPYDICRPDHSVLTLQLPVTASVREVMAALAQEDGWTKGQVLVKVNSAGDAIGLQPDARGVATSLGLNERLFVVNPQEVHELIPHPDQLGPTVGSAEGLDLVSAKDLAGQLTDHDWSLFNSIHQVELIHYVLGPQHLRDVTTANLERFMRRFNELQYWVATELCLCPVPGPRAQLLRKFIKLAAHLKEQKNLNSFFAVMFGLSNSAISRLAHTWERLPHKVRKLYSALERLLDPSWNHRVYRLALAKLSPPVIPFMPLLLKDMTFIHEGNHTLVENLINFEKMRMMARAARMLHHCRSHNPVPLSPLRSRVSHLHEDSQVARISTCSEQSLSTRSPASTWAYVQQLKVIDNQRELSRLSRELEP

Potency, inconclusive:
COc1ccc(-n2cc(-c3ccccc3)c3c(N4CCOCC4)ncnc32)cc1 79.4 µM [inhibitor, single point]
O=C(CCl)Nc1cccc(Oc2ccccc2)c1 89.1 µM [inhibitor, partial curve]
COc1ccccc1/C=C1/SC(=O)N(CCC(=O)Nc2ccc(S(=O)(=O)Nc3nccs3)cc2)C1=O 50.1 µM [inhibitor, partial curve]
O=C(CNC(=S)N(Cc1ccccc1)Cc1cccnc1)N1CCOCC1 100 µM [inhibitor, partial curve, poor fit]
O=C(NCc1ccco1)C(Cc1ccccc1)N1C(=O)C2C3C=CC(C3)C2C1=O (stereo not drawn) 89.1 µM [inhibitor, partial curve]
O=C1C(NS(=O)(=O)c2ccc(Br)cc2)=C(N2CCCCC2)C(=O)c2ccccc21 100 µM [inhibitor, single point]
O=C(C[C@H]1C[C@H](C(=O)N2CCOCC2)[C@@]2(CCC3CCCC3)c3[nH]c4ccc(Cl)cc4c3CCN2C1=O)NCCCn1ccnc1 70.8 µM [inhibitor, partial curve]
CC(C)N(C(=O)CSc1nnc(NC(=O)Cc2cccs2)s1)C(C)C 35.5 µM [inhibitor, full curve]
CC(=O)c1cn(CC(=O)Nc2ccccc2C)c2ccccc12 20 µM [inhibitor, single point]
O=C(NCC(c1ccco1)N1CCCCC1)c1cccc(S(=O)(=O)Nc2ccccc2Cl)c1 (stereo not drawn) 89.1 µM [inhibitor, single point]
COc1ccc(Oc2cccc(Cl)c2CNC(=O)CCCC(=O)O)cc1 3.55 µM [inhibitor, full curve, poor fit]
O=C(/C=C/c1ccncc1)c1ccc(NC(=O)c2ccccc2F)cc1 100 µM [inhibitor, single point]
CCOc1ccccc1-n1nnnc1SCC(=O)O 63.1 µM [inhibitor, partial curve, poor fit]

Potency, active:
CCOc1cc(/C=C2\C(=O)N(c3nc(-c4ccc(Br)cc4)cs3)N=C2c2ccccc2)ccc1O 35.5 µM

Potency, inactive:
Cc1cc(C)n(C(=O)C2CCCN2S(=O)(=O)c2ccc(Cl)cc2)n1 (stereo not drawn)
COc1cc(/C=C(\C#N)C(=O)NC2CCCCC2C)ccc1OS(=O)(=O)c1ccc(C)cc1 (stereo not drawn)
CCOC(=O)C1CCN(C(=O)c2ccc(OCC(=O)N3CCOCC3)c(OC)c2)CC1
Cc1nc2sc(C)c(C)c2c(=O)o1
